From patent US20240247080A1, “GLP1/GIP/NPY2 RECEPTOR TRIPLE AGONISTS” (Boehringer Ingelheim International GmbH, priority 2022, published 2024)
Like-named read-outs stand apart in the source and are kept apart here. At least one compound was matched to its structure with a doubt left. Starred links: 1 amine or outer side, 2 acyl side, 3 side chain; linkers in the order of their positions; H or OH if unused. Non-standard residues stand in square brackets, D forms with d. Groups on a side chain read outwards from the residue. No end group written: not given here. *: point of attachment. C20 diacid = O=C(O)CCCCCCCCCCCCCCCCCCC(=O)*; C18 diacid = O=C(O)CCCCCCCCCCCCCCCCC(=O)*; γGlu = O=C(O)[C@H](CCC(=O)[*:2])N[*:1]; εLys = N[C@@H](CCCCN[*:1])C(=O)[*:2]; AEEA = NCCOCCOCC(=O)O; Aib = CC(C)(N)C(=O)O

Legend:
Assay type in all cases: cell-based
hNPY2R = biological target: T1, hNPY2R (Homo sapiens, UniProt P49146); test: hNPY2R CreLuc reporter gene assay in 0.5% and 100% plasma
T1 construct: expressed in transfected cells; host or cells: HEK-293 cells carrying a CRE-luciferase reporter gene
T1 sequence (P49146 1-381): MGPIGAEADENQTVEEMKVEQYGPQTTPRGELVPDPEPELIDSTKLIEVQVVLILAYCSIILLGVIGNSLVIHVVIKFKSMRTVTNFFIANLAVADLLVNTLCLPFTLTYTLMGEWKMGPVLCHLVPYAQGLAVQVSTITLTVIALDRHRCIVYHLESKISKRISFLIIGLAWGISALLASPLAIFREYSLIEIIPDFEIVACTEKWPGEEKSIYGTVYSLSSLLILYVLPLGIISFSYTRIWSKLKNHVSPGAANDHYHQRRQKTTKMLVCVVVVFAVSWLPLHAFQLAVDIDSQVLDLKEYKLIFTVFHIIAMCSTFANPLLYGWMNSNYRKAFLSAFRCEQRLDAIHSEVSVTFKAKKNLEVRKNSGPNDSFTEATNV
Procedure, shortened: (§1)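 Agonist EC50s came from 8-concentration curves over four decades, fitted by non-linear variable-slope regression of CRE-driven luciferase luminescence. Cells were exposed 4 h at 37 °C, in buffer with 0.5% human plasma or in 100% plasma; GIPR was expressed in CHO cells, GLP-1R and NPY2R in HEK cells.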

hGLP1R = biological target: T2, hGLP1R (Homo sapiens, UniProt P43220); test: hGLP1R CreLuc reporter gene assay in 0.5% and 100% plasma; details: 0.5% human plasma, read-out: hGLP1R 0.5% hP
T2 construct: expressed in transfected cells; host or cells: HEK-293 cells carrying a CRE-luciferase reporter gene
T2 sequence (P43220 24-463): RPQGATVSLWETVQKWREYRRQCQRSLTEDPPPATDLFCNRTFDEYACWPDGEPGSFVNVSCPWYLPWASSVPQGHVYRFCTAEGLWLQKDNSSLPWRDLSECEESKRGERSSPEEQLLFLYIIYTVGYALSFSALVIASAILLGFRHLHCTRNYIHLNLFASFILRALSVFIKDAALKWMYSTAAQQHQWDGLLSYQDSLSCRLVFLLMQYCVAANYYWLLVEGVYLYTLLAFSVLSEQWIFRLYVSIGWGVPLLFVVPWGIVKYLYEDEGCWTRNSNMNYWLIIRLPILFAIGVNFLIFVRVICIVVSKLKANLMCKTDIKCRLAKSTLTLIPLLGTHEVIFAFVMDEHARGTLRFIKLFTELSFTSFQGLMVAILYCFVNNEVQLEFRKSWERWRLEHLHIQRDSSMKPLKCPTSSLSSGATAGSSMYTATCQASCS
Procedure, shortened: as §1

hGIPR = biological target: T3, hGIPR (Homo sapiens, UniProt P48546); test: hGIPR CreLuc reporter gene assay in 0.5% and 100% plasma
T3 construct: expressed in transfected cells; host or cells: CHO cells carrying a CRE-luciferase reporter gene
T3 sequence (P48546 22-466): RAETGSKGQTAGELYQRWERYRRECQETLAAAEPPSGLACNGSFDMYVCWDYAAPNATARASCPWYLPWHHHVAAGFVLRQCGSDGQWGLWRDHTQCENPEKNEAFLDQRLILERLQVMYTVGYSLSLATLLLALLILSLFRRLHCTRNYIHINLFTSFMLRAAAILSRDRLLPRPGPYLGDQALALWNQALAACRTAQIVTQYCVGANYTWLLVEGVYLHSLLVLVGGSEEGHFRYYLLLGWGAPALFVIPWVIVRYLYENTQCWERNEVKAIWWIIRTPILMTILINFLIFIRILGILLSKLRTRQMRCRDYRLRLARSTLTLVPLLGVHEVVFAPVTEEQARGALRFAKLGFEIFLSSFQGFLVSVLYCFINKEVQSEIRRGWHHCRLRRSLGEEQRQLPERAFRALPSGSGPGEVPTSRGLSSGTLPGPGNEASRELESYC
Procedure, shortened: as §1

[1] = 0.5% human plasma, read-out: hNPY2R 0.5% hP
[2] = 100% human plasma, read-out: hNPY2R 100% hP
[3] = 0.5% human plasma, read-out: hGIPR 0.5% hP

CC[C@H](C)[C@H](NC(=O)[C@H](CC(C)C)NC(=O)[C@H](Cc1c[nH]c2ccccc12)NC(=O)[C@H](CCC(=O)O)NC(=O)[C@@H](NC(=O)[C@H](Cc1ccccc1)NC(=O)[C@H](C)NC(=O)C(C)(C)NC(=O)[C@H](CCC(N)=O)NC(=O)[C@H](C)NC(=O)[C@H](CCC(N)=O)NC(=O)[C@H](CCCCN)NC(=O)[C@H](CCC(=O)O)NC(=O)[C@H](CC(C)C)NC(=O)C(C)(C)NC(=O)[C@@H](NC(=O)[C@H](CO)NC(=O)[C@H](Cc1ccc(O)cc1)NC(=O)[C@H](CC(=O)O)NC(=O)[C@H](CO)NC(=O)[C@@H](NC(=O)[C@H](Cc1ccccc1)NC(=O)[C@@H](NC(=O)CNC(=O)[C@H](CCC(=O)O)NC(=O)C(C)(C)NC(=O)[C@@H](N)Cc1ccc(O)cc1)[C@@H](C)O)[C@@H](C)O)[C@@H](C)CC)C(C)C)C(=O)N[C@@H](CCCCNC(=O)[C@@H](N)CCCCNC(=O)CC[C@H](NC(=O)[C@H](CCC(=O)O)NC(=O)CC[C@H](NC(=O)CC[C@H](NC(=O)CC[C@H](NC(=O)CC[C@H](NC(=O)CCCCCCCCCCCCCCCCCCC(=O)O)C(=O)O)C(=O)O)C(=O)O)C(=O)O)C(=O)O)C(=O)NCC(=O)NCC(=O)N1CCC[C@H]1C(=O)N[C@@H](CO)C(=O)N[C@@H](CO)C(=O)NCC(=O)N[C@@H](C)C(=O)N[C@@H](CO)C(=O)N[C@@H](CC(C)C)C(=O)N[C@@H](CCCNC(=N)N)C(=O)N[C@@H](Cc1c[nH]cn1)C(=O)N[C@@H](Cc1ccc(O)cc1)C(=O)N[C@@H](Cc1ccc(O)cc1)C(=O)N[C@@H](CC(N)=O)C(=O)N[C@@H](Cc1c[nH]c2ccccc12)C(=O)N[C@H](CCCNC(=N)N)C(=O)N[C@H](C(=O)N[C@@H](CCCNC(=N)N)C(=O)N[C@@H](CCC(N)=O)C(=O)N[C@@H](CCCNC(=N)N)C(=O)N[C@@H](Cc1ccc(O)cc1)C(N)=O)[C@@H](C)O [Compound 190, Y-Aib-E-G-T-F-T-S-D-Y-S-I-Aib-L-E-K-Q-A-Q-Aib-A-F-V-E-W-L-I-K(1,3)-G-G-P-S-S-G-A-S-L-R-H-Y-Y-N-W-DArg-T-R-Q-R-Y-NH2.C20DA-gGlu-gGlu-gGlu-gGlu-Glu-gGlu-eLys(1,2)]
EC50 (hNPY2R; [1]): > 100 nM | EC50 (hNPY2R; [2]): > 1000 nM | EC50 (hGLP1R): 0.1 nM | EC50 (hGIPR; [3]): 0.13 nM | EC50 (hGIPR; 100% human plasma, read-out: hGIPR 100% hP): 1.18 nM

Y[Aib]EGTFTSDYSI[Aib]LEKQAQ[Aib]AFVQWLIK([εLys-Glu-γGlu-γGlu-γGlu-γGlu-C20 diacid])GGPEEGASLRHYYNWLTRQRY-NH2 [Compound 108, Y-Aib-E-G-T-F-T-S-D-Y-S-I-Aib-L-E-K-Q-A-Q-Aib-A-F-V-Q-W-L-I-K(1,3)-GGPEEGASLRHYYNWLTRQRY-NH2.C20DA-gGlu-gGlu-gGlu-gGlu-Glu-eLys(1,2)]
EC50 (hNPY2R; [1]): 14.7 nM | EC50 (hGLP1R): 0.4 nM | EC50 (hGIPR; [3]): 0.3 nM

Y[Aib]EGTFTSDYSI[Aib]LEKQAQ[Aib]AFVEWLIK([AEEA-AEEA-Glu-γGlu-γGlu-γGlu-C18 diacid])GGPESPASLRHYYNWLTRQRY-NH2 [Compound 64, Y-Aib-E-G-T-F-T-S-D-Y-S-I-Aib-L-E-K-Q-A-Q-Aib-A-F-V-E-W-L-I-K(1,3)-GGPESPASLRHYYNWLTRQRY-NH2.C18DA-gGlu-gGlu-gGlu-Glu-OEG-OEG(1,2)]
EC50 (hNPY2R; [1]): 17 nM | EC50 (hGLP1R): 0.29 nM | EC50 (hGIPR; [3]): 0.18 nM

CC[C@H](C)[C@H](NC(=O)[C@H](CC(C)C)NC(=O)[C@H](Cc1c[nH]c2ccccc12)NC(=O)[C@H](CCC(=O)O)NC(=O)[C@@H](NC(=O)[C@H](Cc1ccccc1)NC(=O)[C@H](C)NC(=O)C(C)(C)NC(=O)[C@H](CCC(N)=O)NC(=O)[C@H](C)NC(=O)[C@H](CCC(N)=O)NC(=O)[C@H](CCCCN)NC(=O)[C@H](CCC(=O)O)NC(=O)[C@H](CC(C)C)NC(=O)C(C)(C)NC(=O)[C@@H](NC(=O)[C@H](CO)NC(=O)[C@H](Cc1ccc(O)cc1)NC(=O)[C@H](CC(=O)O)NC(=O)[C@H](CO)NC(=O)[C@@H](NC(=O)[C@H](Cc1ccccc1)NC(=O)[C@@H](NC(=O)CNC(=O)[C@H](CCC(=O)O)NC(=O)C(C)(C)NC(=O)[C@@H](N)Cc1ccc(O)cc1)[C@@H](C)O)[C@@H](C)O)[C@@H](C)CC)C(C)C)C(=O)N[C@@H](CCCCNC(=O)[C@@H](N)CCCCNC(=O)CC[C@H](NC(=O)CC[C@H](NC(=O)[C@H](CCC(=O)O)NC(=O)CC[C@H](NC(=O)CC[C@H](NC(=O)CC[C@H](NC(=O)CCCCCCCCCCCCCCCCCCC(=O)O)C(=O)O)C(=O)O)C(=O)O)C(=O)O)C(=O)O)C(=O)NCC(=O)NCC(=O)N1CCC[C@H]1C(=O)N[C@@H](CO)C(=O)N[C@@H](CO)C(=O)NCC(=O)N[C@@H](C)C(=O)N[C@@H](CO)C(=O)N[C@@H](CC(C)C)C(=O)N[C@@H](CCCNC(=N)N)C(=O)N[C@@H](Cc1c[nH]cn1)C(=O)N[C@@H](Cc1ccc(O)cc1)C(=O)N[C@@H](Cc1ccc(O)cc1)C(=O)N[C@@H](CC(N)=O)C(=O)N[C@@H](Cc1c[nH]c2ccccc12)C(=O)N[C@H](CC(=O)O)C(=O)N[C@H](C(=O)N[C@@H](CCCNC(=N)N)C(=O)N[C@@H](CCC(N)=O)C(=O)N[C@@H](CCCNC(=N)N)C(=O)N[C@@H](Cc1ccc(O)cc1)C(N)=O)[C@@H](C)O [Compound 204, Y-Aib-E-G-T-F-T-S-D-Y-S-I-Aib-L-E-K-Q-A-Q-Aib-A-F-V-E-W-L-I-K(1,3)-G-G-P-S-S-G-A-S-L-R-H-Y-Y-N-W-DAsp-T-R-Q-R-Y-NH2.C20DA-gGlu-gGlu-gGlu-Glu-gGlu-gGlu-eLys(1,2)]
EC50 (hNPY2R; [1]): > 99.9 nM | EC50 (hNPY2R; [2]): > 999 nM | EC50 (hGLP1R): 0.12 nM | EC50 (hGIPR; [3]): 0.35 nM

CC[C@H](C)[C@H](NC(=O)[C@H](CC(C)C)NC(=O)[C@H](Cc1c[nH]c2ccccc12)NC(=O)[C@H](CCC(N)=O)NC(=O)[C@@H](NC(=O)[C@H](Cc1ccccc1)NC(=O)[C@H](C)NC(=O)C(C)(C)NC(=O)[C@H](CCC(N)=O)NC(=O)[C@H](C)NC(=O)[C@H](CCC(N)=O)NC(=O)[C@H](CCCCN)NC(=O)[C@H](CCC(=O)O)NC(=O)[C@H](CC(C)C)NC(=O)C(C)(C)NC(=O)[C@@H](NC(=O)[C@H](CO)NC(=O)[C@H](Cc1ccc(O)cc1)NC(=O)[C@H](CC(=O)O)NC(=O)[C@H](CO)NC(=O)[C@@H](NC(=O)[C@H](Cc1ccccc1)NC(=O)[C@@H](NC(=O)CNC(=O)[C@H](CCC(=O)O)NC(=O)C(C)(C)NC(=O)[C@@H](N)Cc1ccc(O)cc1)[C@@H](C)O)[C@@H](C)O)[C@@H](C)CC)C(C)C)C(=O)N[C@@H](CCCCNC(=O)[C@@H](N)CCCCNC(=O)[C@H](CCC(=O)O)NC(=O)CC[C@H](NC(=O)CC[C@H](NC(=O)CC[C@H](NC(=O)CC[C@H](NC(=O)CC[C@H](NC(=O)CCCCCCCCCCCCCCCCCCC(=O)O)C(=O)O)C(=O)O)C(=O)O)C(=O)O)C(=O)O)C(=O)NCC(=O)NCC(=O)N[C@@H](CCC(N)=O)C(=O)N[C@@H](CO)C(=O)N[C@@H](CO)C(=O)N[C@@H](Cc1ccc(O)cc1)C(=O)N[C@@H](C)C(=O)N[C@@H](CO)C(=O)N[C@@H](CC(C)C)C(=O)N[C@@H](CCCNC(=N)N)C(=O)N[C@@H](Cc1c[nH]cn1)C(=O)N[C@@H](Cc1ccc(O)cc1)C(=O)N[C@@H](Cc1ccc(O)cc1)C(=O)N[C@@H](CC(N)=O)C(=O)N[C@@H](Cc1c[nH]c2ccccc12)C(=O)N[C@@H](CC(C)C)C(=O)N[C@H](C(=O)N[C@@H](CCCNC(=N)N)C(=O)N[C@@H](CCC(N)=O)C(=O)N[C@@H](CCCNC(=N)N)C(=O)N[C@@H](Cc1ccc(O)cc1)C(N)=O)[C@@H](C)O [Compound 22, Y-Aib-E-G-T-F-T-S-D-Y-S-I-Aib-L-E-K-Q-A-Q-Aib-A-F-V-Q-W-L-I-K(1,3)-GGQSSYASLRHYYNWLTRQRY-NH2.C20DA-gGlu-gGlu-gGlu-gGlu-gGlu-Glu-eLys(1,2)]
EC50 (hNPY2R; [2]): 21.3 nM | EC50 (hGLP1R): 0.45 nM | EC50 (hGIPR; [3]): 0.54 nM
